Experimental data from PubChem BioAssay AID493208 (National Center for Advancing Translational Sciences (NCATS), 2011).
About 340 (0.77%) of roughly 44,000 compounds were called active. Another 5% or so got no clear call; they are omitted. The call rests on the fitted dose curve; in most records, active means well fitted inhibition curve with a large enough effect; inconclusive means small, poorly fitted or top-dose-only effect; inactive means flat fitted curve, though single readings scatter. The list shows a part of the results.

Assay: Acumen qHTS Assay for Inhibitors of the mTORC1 Signaling Pathway in MEF (Tsc2-/-, p53-/-) Cells: Sytravon; further: nearly all actives have a fitted effect of over 50% in size;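 on activity change, negative = inhibition: plate controls were DMSO for no effect and rapamycin for full effect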
Settings: phospho-rpS6 immunofluorescence/PI, 24 h; series mostly up to 38.3 µM; activity change, negative = inhibition: at the top concentration
How it was run: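 Tsc2-/-, p53-/- mouse embryonic fibroblasts (empty-vector line) exposed to compound 24 hrs at 37 C, fixed, immunostained for phospho-rpS6 and counterstained with propidium iodide. Acumen laser scanning gives % positive cells from Alexa 488/PI ratio, thresholded using 7.5 nM rapamycin; PI count gives viability.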
Potency means the concentration at half of the fitted maximal effect.

SMILES | activity change, negative = inhibition | Potency
CCCOc1ccc(C2c3c(oc4ccccc4c3=O)C(=O)N2c2nc(C)c(C(=O)OCC)s2)cc1 (stereo not given) | inactive: -3.11% | 
COc1ccc(S(=O)(=O)NCc2ccc(C(=O)NCc3ccccc3)cc2)cc1 | inactive: -17.5% | 
CC(=O)c1ccc(N2CCN(C(=O)c3ccc(Cn4c(=O)[nH]c5ccccc5c4=O)cc3)CC2)cc1 | inactive: -3.89% | 
CC(C)c1ccc(NC(=O)C2(C)Cc3ccccc3C(=O)O2)cc1 (stereo not given) | inactive: -10.5% | 
Cc1ccc2c(c1)-c1c(cnn1CC(=O)N1CCN(c3cc(Cl)ccc3C)CC1)CO2 | inactive: -3.49% | 
CC(C)C(NS(=O)(=O)c1cccc2cccnc12)C(=O)Nc1ccc(OC(F)(F)F)cc1 (stereo not given) | inactive: -0.922% | 
O=C(c1ccccc1)c1ccc2nc(Nc3cc(Cl)ccc3O)c3nncn3c2c1 | inactive: -5.55% | 
Cc1ccc(CNC(=O)CCCCn2c(=O)c3ccccc3n(Cc3ccc(C)cc3)c2=O)cc1 | inactive: 7.89% | 
CCCCSCCCNC(=O)c1cn(C)c2ccc(S(=O)(=O)N3CCCC3)cc2c1=O | inactive: -0.288% | 
Cc1cc(C)cc(OCC(=O)N(Cc2ccc(Cl)cc2)CC2CCCO2)c1 (stereo not given) | inactive: -7.14% | 
CCOC(=O)c1c(S(=O)(=O)N2CCC(C(=O)NCc3ccccc3OC)CC2)c(C)n(C)c1C | inactive: -7.41% | 
Cc1ccc(-n2nc(C(=O)Nc3ccc(C)c(F)c3)c(=O)n(C)c2=O)cc1 | inactive: 1.28% | 
O=C(NC1CCCC1)c1ccc2c(=O)n(Cc3ccccc3)c(SCc3ccccc3)nc2c1 | inactive: -0.686% | 
COc1ccc(-c2nc3ccc(C)cn3c2Nc2ccc3c(c2)OCO3)cc1 | inactive: 2.1% | 
CCc1cccc(C)c1NC(=O)C1CCN(S(=O)(=O)Cc2ccccc2)CC1 | inactive: -0.891% | 
Cc1ccc(-n2nnnc2CNC(=O)c2ccccc2)cc1C | inactive: 0% | 
COc1cc(C(=O)N2CCN(c3ccc(Nc4ccccc4)nn3)CC2)cc(OC)c1OC | inactive: -1.78% | 
CC1CCCCN1S(=O)(=O)c1cc2c3c(c1)CC(=O)N3CCC2 (stereo not given) | inactive: -10.7% | 
COc1ccc(N2CC(NC(=O)COc3ccc4ccccc4c3)CC2=O)cc1 (stereo not given) | inactive: -1.18% | 
O=C(Cn1c(-c2cccs2)cc2ccccc21)NCc1ccccc1Br | inactive: -8.46% | 
COc1cccc(C(=O)Nc2ccccc2-c2nc3ccccc3s2)c1 | inactive: 7.58% | 
CN(C)S(=O)(=O)c1ccc2c(c1)N(CC(=O)N1CCN(c3ccccc3F)CC1)CCS2 | inactive: 0% | 
CCc1cccc(C)c1NC(=O)CN1C(=O)C2(SCC(=O)N2c2cc(C)cc(C)c2)c2ccccc21 (stereo not given) | inactive: -3.83% | 
Cc1ccc(-c2nc(CS(=O)(=O)CC(=O)NCc3ccccc3Cl)c(C)o2)cc1 | inactive: 3.3% | 

SMILES | activity change, negative = inhibition | Potency
O=S(=O)(c1ccc2[nH]c3c(c2c1)CCCCC3)N1CCN(c2cccc(Cl)c2)CC1 | inactive: -3.09% | 
Cc1ccccc1CNC(=O)c1sc2ncnc(N(C)C3CCCCC3)c2c1C | inactive: 0.981% | 
CC1=C(C(=O)Nc2cccc(C(F)(F)F)c2)C2(CCCCC2)OC1=O | inactive: 1.74% | 
Cc1cccc(NC(=O)c2sc(-n3nc(C)c(CCC(C)C)c3C)nc2C)c1C | inactive: 0% | 
COc1cc(OC)cc(C(=O)Nc2cccc(-c3cn4cccnc4n3)c2)c1 | inactive: -0.786% | 
CCCOc1ccc(NC(=O)CC2C(=O)N(c3ccc(C)cc3)C(=O)N2Cc2cccc(OC)c2)cc1 (stereo not given) | inactive: 2.08% | 
O=c1c2cc3c(nc2ncn1Cc1ccc(Cl)cc1)CCCC3 | inactive: 1.24% | 
COc1ccc(NC(=O)CN2C(=O)c3ccccc3Sc3ccc(C(=O)N4CCOCC4)cc32)c(OC)c1 | inactive: 1.72% | 
COc1cc(C(=O)OCc2cc(=O)n3nc(C(C)C)sc3n2)cc(OC)c1OC | inactive: -3.67% | 
CCOc1ccccc1NC(=O)CN1CCCN(Cc2cccc(Cl)c2)S1(=O)=O | inactive: -5.88% | 
COc1cc(NC(=O)c2cccc(F)c2)ccc1NC(=O)c1cc2ccccc2o1 |  | active: 16.5 µM
Cc1nc2ncnn2c(C)c1CCC(=O)N1CCN(c2cccc(Cl)c2)CC1 | inactive: 0.213% | 
CC1CCC2(CC1)N=C(c1ccccc1)C(=O)N2CC(=O)Nc1ccc(F)c(Cl)c1 (stereo not given) | inactive: -18.7% | 
CCc1ccc(NC(=O)c2nnn(Cc3cccc(C(F)(F)F)c3)c2N)cc1 | inactive: -3.31% | 
COc1cccc(CNC(=O)COCc2cc(-c3ccc4c(c3)OCO4)on2)c1 | inactive: -1.53% | 
COc1cccc(CNC(=O)c2ccc3c(c2)nc2n3CCCCC2)c1OC | inactive: 1.9% | 
CCc1ccc(NC(=O)C2=CC(c3ccc4c(c3)OCO4)=NS(=O)(=O)N2C)cc1 | inactive: -11.7% | 
COc1ccc(NC(=O)Nc2c[nH]c(=O)[nH]c2=O)c(OC)c1 | inactive: -2.98% | 
CCOc1ccc(-c2nc(SCC(=O)NCCCOC)c(-c3ccccc3)[nH]2)cc1 | inactive: -0.312% | 
CCn1c(CN2CCOCC2)nc2cc(NC(=O)c3ccc([N+](=O)[O-])cc3)ccc21 | inactive: -4.32% | 
COc1ccccc1CNC(=O)CSc1ncc2c(n1)-c1cc(Cl)ccc1N(Cc1ccccc1)S2(=O)=O | inactive: -1.31% | 
Cc1c(C(=O)N(Cc2ccc(Cl)cc2)CC2CCCO2)oc2ccc(F)cc12 (stereo not given) | inactive: -7.92% | 
CSc1ccc(CC2C(=O)Nc3ccccc32)cc1 (stereo not given) | inactive: 0.0686% | 
O=C(Cc1ccccc1F)N1CCC(c2nc3c(nnn3Cc3ccc(F)cc3)c(=O)[nH]2)CC1 | inactive: 4.74% | 

SMILES | activity change, negative = inhibition | Potency
O=C(CS(=O)(=O)c1cccc2nsnc12)Nc1cc(F)ccc1F | inactive: 2.9% | 
CCc1ccccc1NC(=O)C1COc2ccccc2C1 (stereo not given) | inactive: 0.424% | 
Cn1cnc(S(=O)(=O)N2CCC(C(=O)N3CCN(c4ccc(Cl)cc4)CC3)CC2)c1 | inactive: 8% | 
N#C/C(=C\c1ccccc1)C(=O)Nc1sc2c(c1C(N)=O)CCC2 | inactive: -3.27% | 
CC(C)Oc1ccc(CNC(=O)c2cnc3sc(N4CCCCC4)nn3c2=O)cc1 | inactive: 0.515% | 
COc1cccc(C2C(C(=O)Nc3ccccc3)=C(C)Nc3nnnn32)c1OC (stereo not given) | inactive: 3.91% | 
COc1cc2c(-c3ccc(C)cc3)nc3c(c(C)nn3-c3ccccc3)c2cc1OC | inactive: 3.13% | 
Cc1cc(C)cc(OCC(=O)Nc2ccc(Cl)c(-c3nc4ncccc4o3)c2)c1 | inactive: -6.77% | 
N#Cc1ccc(OC(=O)c2cc(-c3ccc4c(c3)OCCO4)on2)cc1 | inactive: -1.5% | 
CCc1ccc(Sc2cc(C(=O)NCCCOC(C)C)c3ccccc3n2)cc1 | inactive: 6.33% | 
CC(=O)Nc1ccc(-n2c(CCC(=O)O)ccc2-c2ccc(C)cc2)cc1 | inactive: 1.37% | 
CCOC(=O)c1oc2ccc(S(=O)(=O)n3nc(-c4cc(OC)cc(OC)c4)cc3N)cc2c1C | inactive: -10.3% | 
Cc1ccc(NC(=O)CSc2nc3c(oc4ccccc43)c(=O)n2Cc2ccco2)cc1 | inactive: -2.94% | 
CCCn1c(=O)c2sccc2n2c(CCCC(=O)N3CCN(c4cccc(C)c4C)CC3)nnc12 | inactive: 3.45% | 
CC(=O)N(Cc1cccnc1)c1nc2c(C)cccc2s1 | inactive: 2.02% | 
Cn1cc(-c2cc3n(n2)CCC(=O)N3CCCC(=O)Nc2ccc(F)cc2F)c2ccccc21 | inactive: 6.96% | 
Cc1cc(C)cc(-n2ccnc2SCC(=O)Nc2ccc3c(c2)OCO3)c1 | inactive: -6.95% | 
Cc1cc2nc(-c3ccc(Br)cc3)cc(C(F)(F)F)n2n1 | inactive: -0.903% | 
CCOC(=O)C1CCN(C(=O)Cn2nc(C)n3c(cc4cc(C)ccc43)c2=O)CC1 | inactive: -4.75% | 
COc1ccc(CCn2c(=O)c3cccnc3n(CC(=O)Nc3cccc(C)c3)c2=O)cc1OC | inactive: -4.93% | 
COc1ccc(S(=O)(=O)NCc2ccc3c(c2)CCN3C(=O)c2ccc(C)cc2)cc1Cl | inactive: 0% | 
CCc1ccc(-c2cn3c(n2)sc2cc(C(=O)NCC(C)c4ccccc4)ccc23)cc1 (stereo not given) | inactive: 5.53% | 
CCc1ccc(N2CCn3c2nc2c3c(=O)n(Cc3c(F)cccc3Cl)c(=O)n2C)cc1 | inactive: -0.505% | 
Cc1nnc2c(N3CCN(c4ccccc4)CC3)nc3ccc(C(=O)c4ccccc4)cc3n12 | inactive: 5.18% | 

SMILES | activity change, negative = inhibition | Potency
Cc1ccc2nc(NS(=O)(=O)c3ccc(Cl)cc3)c(Nc3ccc(C(=O)O)cc3)nc2c1 | inactive: 14.5% | 
O=C(C1CC1)N1CCc2cc(Br)cc(S(=O)(=O)N3CCN(c4ccccc4)CC3)c21 | inactive: 2.71% | 
CCc1ccc(NS(=O)(=O)c2ccc(C(=O)N(C)C)s2)cc1 | inactive: 0% | 
Cn1c(=O)c2sccc2n2c(CCC(=O)N3CCN(c4cccc(Cl)c4)CC3)nnc12 | inactive: 6.36% | 
Cc1c(CNCCc2ccc(S(N)(=O)=O)cc2)c(C(=O)O)c(C)n1Cc1ccc(Cl)cc1 | inactive: -8.45% | 
CCCCC(=O)Nc1nnc(S(=O)(=O)N(CC)c2cc(C)cc(C)c2)s1 | inactive: 5.02% | 
CCOc1ccc(/C=C(\C#N)C(=O)Nc2sc3c(c2C(=O)OC)C(C(=O)OC)CC3)cc1OC (stereo not given) | inactive: -7.11% | 
CN(C(=O)CSc1nc2ccccc2n1CC(=O)N(C)c1ccc(F)cc1)c1ccccc1 | inactive: 0% | 
COc1cc(NC(=O)c2cc(-c3ccc(Cl)c(Cl)c3)on2)cc(OC)c1OC | inactive: -17.1% | 
O=C(CSc1nccn1Cc1ccc(F)cc1)Nc1ccc2c(c1)OCO2 | inactive: 2.24% | 
Cc1ccc(CNC(=O)CN2C(=O)C3(SCC(=O)N3c3cc(C)cc(C)c3)c3ccccc32)cc1 (stereo not given) | inactive: 2.99% | 
COc1ccc(N2CCN(C(=O)C3CCN(S(=O)(=O)Cc4ccccc4)CC3)CC2)cc1 | inactive: 3.39% | 
COc1ccc(CNCCSc2nnnn2-c2ccccc2)c(OC)c1 | inactive: -13.6% | 
CCN(c1ccccc1)S(=O)(=O)c1ccc(F)c(C(=O)Nc2ccc(C)cc2)c1 | inactive: -24.2% | 
Cc1nc(-c2cccc(F)c2)sc1CCNC(=O)c1ccc(F)c(F)c1 | inactive: -3.08% | 
CCOc1ccc(Nc2oc(-c3ccc(COc4ccccc4C)o3)nc2C#N)cc1 | inactive: -16.4% | 
Cc1ccc(Nc2nnc(-c3ccc(C)c(S(=O)(=O)N4CCCCC4)c3)c3ccccc23)cc1 | inactive: -1.69% | 
CCOc1ccc2c(c1)[C@@H]1C=CC[C@@H]1[C@H](c1ccccc1Cl)N2 | inactive: -0.318% | 
Cc1ccc(CNC(C)c2ccccc2)s1 (stereo not given) | inactive: -6.07% | 
CC(C)(C)OC(=O)N1CCC(c2c(C(=O)Nc3ccc4c(c3)OCCO4)cnn2-c2ccc(F)cc2)CC1 | inactive: -9.17% | 
Cc1cccc(-c2nc3c(cnn3-c3ccccc3)c(=O)n2-c2cccc(Cl)c2)c1 | inactive: -13.5% | 
O=C(NCCc1ccccc1)c1ccc2c(c1)N(Cc1ccccc1)C(=O)c1ccccc1S2=O (stereo not given) | inactive: -12.1% | 
CN(C)c1ccc(CNC(=O)c2cc3ccccn3n2)cc1 | inactive: -2.31% | 
